Reference: patent publication US11111295B2, “Antibody for anti-claudin 18A2 and use thereof” (CAFA THERAPEUTICS LIMITED, priority 2016, dated 2021)
Changes are numbered by the printed parent chain. Numbers in names are those of the source.

T1: human CLD18A2 (Homo sapiens, UniProt P56856)
T1 construct: expressed in transfected cells
T1 sequence (P56856 1-261 isoform P56856-2): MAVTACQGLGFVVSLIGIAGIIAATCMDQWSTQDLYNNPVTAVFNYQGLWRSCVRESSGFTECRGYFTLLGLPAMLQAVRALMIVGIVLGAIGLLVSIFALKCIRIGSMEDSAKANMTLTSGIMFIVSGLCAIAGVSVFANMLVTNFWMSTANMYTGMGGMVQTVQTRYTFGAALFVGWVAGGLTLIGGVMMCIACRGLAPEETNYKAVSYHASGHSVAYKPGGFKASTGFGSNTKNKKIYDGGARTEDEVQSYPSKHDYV

B1: hu8E5: humanized antibody of 8E5 with S62A, heavy chain SEQ ID NO:67, light chain SEQ ID NO:65 (antibody)
heavy: QVQLQESGPGLVKPSQTLSLTCTVSGGSISSGYNWHWIRQPPGKGLEWIGYIHYTGSTNYNPALRSRVTISVDTSKNQFSLKLSSVTAADTAIYYCARIYNGNSFPYWGQGTTVTVSS[human IgG1 constant region not written out]
light: DIVMTQSPDSLAVSLGERATINCKSSQSLFNSGNQKNYLTWYQQKPGQPPKLLIYWASTRESGVPDRFSGSGSGTDFTLTISSLQAEDVAVYYCQNAYSFPYTFGGGTKLEIKRTVAAPSVFIFPPSDEQLKSGTASVVCLLNNFYPREAKVQWKVDNALQSGNSQESVTEQDSKDSTYSLSSTLTLSKADYEKHKVYACEVTHQGLSSPVTKSFNRGEC
B2: hu8E5-2I: hu8E5 mutant, heavy chain valines 12 and 93 mutated to I; heavy chain SEQ ID NO:63, light chain SEQ ID NO:65 (antibody)
heavy: B1 heavy with V12I
light: B1 light

Tests used:
human CLD18A2 = biological target: T1, human CLD18A2; experiment: Flow cytometry binding of scFv_Fc fusion antibody to HEK293 cells stably transfected with human CLD18A2 (EC50); conditions: scFv fused to human IgG1 Fc portion; for EC50: HEK293 cells stably transfected with human CLD18A2, read-out: relative binding affinity EC50 value
Experimental: Binding of anti-Claudin 18A2 scFv_Fc fusion antibody to HEK293 cells stably transfected with CLD18A2 was determined by flow cytometry. Experimental data was analyzed using GraphPad Prism and Guava easyCyte™ HT System instrument as described in Example 1 to obtain EC50 value.
Expression vectors of ScFv Fc-form of the two mutants were constructed as described in Example 2, and according to the procedure of Example 2, and the experimental data was analyzed using GraphPad Prism and Guava easyCyte™ HT System instrument to obtain EC50.
The binding activity assay was performed as described in Example 2, and experimental data was analyzed using HEK293 cells (HEK-CLD18A2) stably expressing human CLD18A2, GraphPad Prism and Guava easyCyte™ HT System instrument to obtain EC50, and the results are shown in FIG. 5.
(5) The binding activity was tested, and experimental data was analyzed using HEK293 cells (HEK-CLD18A2) stably expressing human CLD18A2, GraphPad Prism and Guava easyCyte™ HT System instrument, and the results are shown in FIG. 6.
The mutant hu8E5-2I of the humanized antibody hu8E5 was constructed as described in Example 3. Experimental data was analyzed using HEK293 cells (HEK-CLD18A2) stably expressing human CLD18A2, GraphPad Prism and Guava easyCyte™ HT System instrument, and the results are shown in FIG. 7.

[1] = Molecular sieve analysis of monomeric form of scFv_Fc fusion antibody; format: physicochemical
Experimental: The 3D model of hu8E5 was established by Discovery studio software, and the potential aggregation sites were analyzed.

[2] = tested on: HEK293 cells stably transfected with CLD18A2; experiment: Antibody-dependent cytotoxicity (ADCC), LDH release with human PBMC; format: cell-based; conditions: antibody 20 μg/ml; effector-to-target ratio 50:1, 20:1 and 10:1
Experimental: The ADCC activity of the humanized antibody, claudin 18A2 antibody was measured by a lactate dehydrogenase (LDH) release assay using a cytoTox 96 non-radioactive cytotoxicity assay kit (Promega, Madison, USA). Human peripheral blood mononuclear cells (PBMC) were purified from citrated whole blood by standard Ficoll-paque separation and resuspended in complete medium (RPMI-1640 culture, Gibco) supplemented with 10% fetal bovine serum (FBS, Gibco) at a density of 8×10^6 cells/ml. HEK293 cells stably transfected with CLD18A2 were used as target cells. The cells were washed twice and resuspended in a complete culture at a density of 2×10^5 cells/ml. PBMCs were incubated with an antibody at a final concentration of 20 ug/ml for 30 minutes at 37° C., and then 50 μl of antibody and effector cells were added into 50 μl of target cells at a effector-to-target ratio of 50:1, 20:1, 10:1 (total 1×10^4 target cells). […] The percentage of lysis was calculated as follows: (sample release−target spontaneous release−spontaneous release of effector cells)/(maximum release−target spontaneous release)*100; wherein the target spontaneous release is fluorescence in wells containing only target cells, spontaneous release of effector cells is fluorescence in wells containing only effector cells, and maximum release is fluorescence in wells containing target cells that have been treated with lysis buffer.

[3] = tested on: HEK293 cells stably transfected with CLD18A2; experiment: Complement dependent cytotoxicity (CDC), CCK-8; format: cell-based, human; conditions: antibody 20 μg/ml; serum 10%
Experimental: (§1) Blood was collected from healthy volunteers and serum was prepared by centrifugation. A CCK-8 cell proliferation-toxicity assay kit (Dojindo, #CK04) was used. HEK293 cells stably transfected with CLD18A2 or CLD18A1 were used as target cells. The cells were washed twice, resuspended in complete medium at a density of 1×10^5 cells/ml, seeded in a 96-well culture plate at 100 μl per well and cultured overnight at 37° C. The next day, antibody was added to each well at a final concentration of 20 μg/ml, and incubate for 30 min at 37° C. in an incubator. Then, serum at a final concentration of 10% was added and incubated at 37° C. for 1.5 hours. 10 ul of CCK-8 solution was added to each well, incubated at 37° C. for 3.5 h (adjusted as appropriate), and the absorbance at 450 nm was measured with a microplate reader.
(§2) lysis percentage is calculated as follows: Lysis percentage=(cell control well−experiment well)/cell control well−(cell control well−antibody control well)/cell control well.

[4] = tested on: HEK293 cells stably transfected with CLD18A1; experiment: Complement dependent cytotoxicity (CDC), CCK-8; format: cell-based, human; conditions: antibody 20 μg/ml; serum 10%
Experimental: as §1, §2

gastric cancer PDX tumor = experiment: Gastric cancer PDX model, antibody treatment; format: in vivo, BALB/c nude mice; conditions: D56 after inoculation; vs PBS control; antibody 40 mg/kg injected 6 times, EOF injected twice
Experimental: Establishment of a PDX model of gastric cancer: Tumors of about 3 mm×3 mm×3 mm in size were inoculated subcutaneously into the right ankle of BALB/c nude mice. The day of tumor cell inoculation was recorded as D0 days, the tumor volume was measured at D27 from the inoculation of tumor, and the mice were randomly divided into 5 groups. The specific groups are as follows: (1) PBS (phosphate buffer) control group; (2) hu8E5-2I antibody treatment group (40 mg/kg); (3) EOF treatment group (E is epirubicin: 1.25 mg/Kg; O is oxaliplatin: 3.25 mg/kg; F is 5-fluorouracil: 56.25 mg/kg)+PBS; (4) hu8E5-2I antibody (40 mg/kg)+EOF treatment group (1.25 mg/kg Epirubicin+3.25 mg/kg oxaliplatin+56.25 mg/kg 5-fluorouracil); (5) ch175D10 antibody (40 mg/kg)+EOF treatment group (1.25 mg/kg epirubicin+3.25 mg/kg oxaliplatin+56.25 mg/kg 5-fluorouracil). Dosage: EOF was administered once a week for 2 weeks; hu8E5-2I and ch175D10 antibodies were administered 3 times per week for 2 weeks.
The tumor was inoculated for D56 days, the EOF was injected twice, the antibody was injected 6 times, and the mice were sacrificed by cervical dislocation. […] From the tumor weighing, the EOF+mAb hu8E5-2I treatment group was statistically different over the EOF+PBS group, P=0.033; while the EOF+mAb 175D10 treatment group was not statistically different over the EOF+PBS group, P=0.097.

Molecule | EC50 (human CLD18A2) [µM] | proportion of the monomeric form in scFv_Fc fusion antibody [1] [%] | increase of affinity compared with the parent antibody 8E5 (human CLD18A2) [fold] | ADCC effects compared with reference antibodies [2] | CDC effects against HEK293-CLD18A2 [3] [%] | CDC killing of cells expressing 18A1 [4] | tumor inhibition rate (gastric cancer PDX tumor) [%]
B1 | 0.107 | 74 |  |  |  |  | 
B2 | 0.00922 | 87 | 5 | significantly higher ADCC effects than ch-175D10 and ch-163E12 | 82.65 | did not kill | 21.13
